Measurements from PubChem BioAssay AID1508624 (National Center for Advancing Translational Sciences (NCATS), 2021).
Hit rate of the full screen: of about 48,000 compounds, about 120 (0.25%) were called active. About 4% were inconclusive and are not listed. The call rests on the fitted dose curve; in most records, active means well fitted activation curve with a large enough effect; inconclusive means small, poorly fitted or top-dose-only effect, or another doubt; inactive means no such curve, though single readings can be large or run the other way. Some of the results follow.

test: Primary qHTS for Identification of Small Molecule Activators of Huntingtin-Antisense Promoter Activity; conditions: HEK293 HTT-AS promoter firefly luciferase reporter, 24 h; series mostly up to 57.5 µM; activity change, positive = activation: at the top concentration; further: nearly all actives have a fitted effect of over 55% in size
How it was run: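 HEK293 cells carrying firefly luciferase reporters were seeded at 2,500 per well in Opti-MEM and cultured for 24 h. They were then treated with compounds at up to 57.5 uM final for 24 h at 37 degrees C before Dual-Glo luminescence readout.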

Activity change, positive = activation, inactive:
Cc1c(C(=O)N(Cc2ccc(N(C)C)cc2)C2CCS(=O)(=O)C2)oc2ccccc12 (stereo not given) -1.12%
Cc1ccc2sc(N(Cc3cccnc3)C(=O)CCOc3ccccc3)nc2c1C -18.7%
O=C(O)CCCCCCCC(=O)O -1.19%
COc1cc(C(=O)CC2(O)C(=O)N(Cc3ccccc3Cl)c3ccccc32)cc(OC)c1OC (stereo not given) -33.5%
COc1ccc(OC)c(C2NC(=O)NC(C)=C2C(=O)Nc2cc(C)cc(C)c2)c1 (stereo not given) -14.1%
O=C(c1ccc2c(c1)N(Cc1ccccc1)C(=O)c1ccccc1S2(=O)=O)N1CCN(c2ccccc2)CC1 -19%
Cc1ccccc1-c1nc(CS(=O)CC(=O)N2CCN(c3cc(Cl)ccc3C)CC2)c(C)o1 (stereo not given) -44.9%
CCC(=O)N1c2ccccc2CC1C(=O)NCc1cccc(C)c1 (stereo not given) -10.6%
CCN(CC)CCCNC(=O)Cn1nc(C)n2c(cc3sccc32)c1=O -13.3%
Cc1ccc(C(=O)c2oc3ccccc3c2NC(=O)Cc2coc3cc(C)ccc23)cc1 -0.689%
COc1ccc(CCNC(=O)Cn2c(=O)n(-c3ccc(C)c(C)c3)c(=O)c3c(C)c(C)sc32)cc1OC 10.3%
COc1ccc(Cn2nnc3c(=O)[nH]c(C4CCCN(C(=O)c5ccc(C)cc5)C4)nc32)cc1 (stereo not given) -18.4%
CCCCc1ccc(NC(=O)Cn2nnc3sc4c(c3c2=O)CCC(C)C4)cc1 (stereo not given) -17.5%
CCOc1cccc(C2Nc3ccccc3-c3cc(C)nn32)c1O (stereo not given) 12.9%
CCc1ccccc1NC(=O)Cn1ccn(-c2cc(C)cc(C)c2)c(=O)c1=O -74.8%
COc1ccc(NC(=O)c2ccc3oc(=O)c(S(=O)(=O)c4ccc(C)cc4)cc3c2)cc1OC 0%
Cc1nn(S(=O)(=O)c2ccccc2)c(C)c1S(=O)(=O)N1CCC(C)CC1 -9.71%
COc1ccc(OC)c(C(=O)c2c(N)c(-c3nc(-c4ccc(C)c(C)c4)cs3)c3ccccn23)c1 -2.1%
Clc1cccc(CSc2nncn3c2cc2sccc23)c1 -7.07%
Cc1ccc2oc(=O)c3cc(C(=O)Nc4ccc(F)cc4F)sc3c2c1 5.03%
COc1ccc(CCNC(=O)c2ccc(Cn3c(=O)c4ccccc4n(Cc4cc(C)ccc4C)c3=O)cc2)cc1OC -1.26%
Fc1ccc(Nc2nc3ccccc3c3nncn23)c(Cl)c1 -1.15%
Cc1ccc(NC(=O)c2oc3ccc(S(=O)(=O)N4CCCCCC4)cc3c2C)cc1Cl 4.46%
CC(C)CSc1nnc(-c2ccccc2)c(-c2ccccc2)n1 -0.66% [at 11.5 µM, percent change from vehicle, -100% = no light]
CCCN1C(=O)c2[nH]nc(-c3ccccc3O)c2C1c1ccc(OCc2ccccc2)c(OCC)c1 (stereo not given) -24.1%
COc1ccc(C)c2sc(N(Cc3cccnc3)C(C)=O)nc12 -16.1%
Cc1ccc(Cl)cc1NC(=O)CN1C(=O)c2cccc3cccc1c23 -22.3%
COc1ccccc1OCCn1c(NC(=O)c2ccc(Cl)cc2)nc2ccccc21 19.1%
COc1ccc(-c2nc3ccccc3s2)cc1NC(=O)COc1ccccc1C -0.0885%
O=C(Nc1c(C(=O)N2CCN(c3ccc(F)cc3)CC2)oc2ccccc12)c1c(F)cccc1F -31.9%
Cc1nnc(NC(=O)CSc2nc3c([nH]c4ccccc43)c(=O)n2-c2ccccc2)s1 -14.9%
CC(O)CN(CCN(CC(C)O)CC(C)O)CC(C)O (stereo not given) -0.607%
COc1ccc(C2CC(=O)c3cc(-c4nc(-c5cccc([N+](=O)[O-])c5)cs4)c(=O)n(-c4ccc(C)c(C)c4)c3C2)cc1 (stereo not given) -6.17%
CCC(Sc1nc2ccccc2c2nc(CCn3cncc3C)nn12)C(=O)Nc1cccc(OC)c1 (stereo not given) -8.67%
CC(C)Oc1ccc(C(=O)Nc2ccc3c(c2)CCCN3C(=O)c2cccs2)cc1 -45.4%
Cc1sccc1Br -6.16%
CCC1CCCCN1CCCNC(=O)CN1C(=O)c2cccnc2Oc2ccc(Cl)cc21 (stereo not given) -6.92%
COc1ccc(Cn2c(CNC(=O)c3ccc(N(C)C)cc3)nc3cccnc32)cc1 -18.9%
O=C(Cn1cc(SCc2ccc(C(F)(F)F)cc2)c2ccccc21)N1CCCCCC1 -9.21%
COc1ccc(NC(=O)CSc2nnc(-c3ccc(OC)cc3)s2)cc1 -45.3%
COc1cccc(C(c2sc3nc(-c4ccco4)nn3c2O)N2CCOCC2)c1 (stereo not given) -6.64%
Cc1ccc(Nc2nc3ccc(C)cc3nc2-n2nc(C)cc2C)c(C)c1 0.437%
CC(C)C(=O)Nc1nnc(S(=O)(=O)N2CCCCCC2)s1 -6.43%
NS(=O)(=O)c1cc(C2(O)NC(=O)c3ccccc32)ccc1Cl (stereo not given) 0.733%
O=C(C1COc2ccccc2O1)N1CCN(c2nc3c(F)cccc3s2)CC1 (stereo not given) 6.16%
COc1ccc(N(CC(=O)NCc2ccccc2Cl)S(=O)(=O)c2c(C)[nH]c(=O)[nH]c2=O)cc1 7.59% [at 11.5 µM, percent change from vehicle, -100% = no light]
COCCNC(=O)C1CCC(CNS(=O)(=O)c2ccc3c(c2)CC(C)N3C(C)=O)CC1 (stereo not given) -20.8%
COc1cc(C(CC(=O)Nc2ccc(Br)cn2)N2Cc3ccccc3C2=O)cc(OC)c1OC (stereo not given) -22.9%
Cc1c(C(=O)Nc2cccc(F)c2)oc2c1-c1nn(Cc3c(F)cccc3Cl)cc1CC2 -14.1%
CN(C)c1ccc(CNC(=O)CN2C(=O)c3cccnc3Oc3ccc(Cl)cc32)cc1 -1.26%
Cc1nn(CC(=O)NCc2cccc(Br)c2)c(=O)c2c1sc1ccccc12 6.21%
Cc1cc(C)c(S(=O)(=O)NCCc2cc3cc(C)c(C)cc3[nH]c2=O)c(C)c1 -7.11%
O=S(=O)(NCCc1nnc2ccc(SCc3ccc(C(F)(F)F)cc3)nn12)c1ccccc1 -24.4%
CCOc1ccccc1NC(=O)CSc1nc2c(oc3ccccc32)c(=O)n1C(C)C -2.22%
COCCCNC(=O)c1cc(-c2ccc(OC)cc2)nc2n[nH]c(-c3ccc(Cl)cc3)c12 -10.4%
Cc1c(C(=O)Nc2ccc(F)cc2F)oc2ccc3c(c12)C(=O)CC(C)(C)O3 -60.6%
COc1ccc(CCNC(=O)c2cnc3ccc(C)cn3c2=O)cc1OC 17.1%
Cn1ncc2c(NCc3ccc(Cl)cc3)ncnc21 -6.29%
Cc1ccc(CNC(=O)c2c(O)nc3ccccn3c2=O)cc1 -7.78%
Cc1ccc(Cn2c(=O)n(CC3CCC(C(=O)N4CCC(C)CC4)CC3)c(=O)c3sccc32)cc1 (stereo not given) -14.7%
